Screen size: about 340,000 compounds; about 6,900 (2%) were called active. Cut-off read from the data, not from the text of the source: active = inhibition above about 30%; inactive = below that, where a call was filed. Only a part is listed here, and it is no random draw. The source gives no active or inactive call for entries shown without one.
Molecular target: D(2) dopamine receptor (Homo sapiens) (UniProt P14416)
Assay: HTS Assay for Allosteric Antagonists of the Human D2 Dopamine Receptor: Primary Screen for Antagonists; note: 0% is about no effect
Conditions: HEK293 TREx D2 cells, calcium flux, dopamine EC80; at 10 µM; stronger effect = higher value
Outline: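 Tetracycline-induced HEK293 TREx cells expressing D2 receptor forced-coupled to calcium signalling, loaded with no-wash calcium dye. Compounds added and calcium flux read 180 s, then dopamine added at EC80 and read a further 180 s.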

UniProt P14416, sequence (P14416 whole entry, looked up): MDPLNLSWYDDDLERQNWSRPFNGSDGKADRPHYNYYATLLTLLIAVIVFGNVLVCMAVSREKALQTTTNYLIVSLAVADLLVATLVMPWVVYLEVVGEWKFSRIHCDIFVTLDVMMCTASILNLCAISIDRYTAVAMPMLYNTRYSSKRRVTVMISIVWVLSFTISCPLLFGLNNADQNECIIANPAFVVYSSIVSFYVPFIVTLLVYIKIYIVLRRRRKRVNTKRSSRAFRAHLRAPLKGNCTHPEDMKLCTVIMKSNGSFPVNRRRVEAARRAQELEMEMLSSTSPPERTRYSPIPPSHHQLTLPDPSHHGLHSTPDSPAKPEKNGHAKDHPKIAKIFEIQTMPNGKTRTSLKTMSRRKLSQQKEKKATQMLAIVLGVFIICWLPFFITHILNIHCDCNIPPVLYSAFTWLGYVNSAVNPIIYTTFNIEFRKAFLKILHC

How did the inhibition turn out when Cc1c(Cl)cccc1NC(=O)CCN1C(=O)c2ccccc2Sc2ncccc21 was run?
Its inhibition is -9.29%.

Which inhibition does the source give for COC(=O)c1cc(C(=O)N2CCN(c3cccc(Cl)c3)CC2)cc([N+](=O)[O-])c1 here?
Its inhibition is active: 30.2%.

Which inhibition does the source give for O=C(c1ccc(F)cc1)n1nc(-c2ccccc2)nc1NCc1ccc(F)cc1 here?
Its inhibition is 11.5%.

With COc1cc2ccccc2cc1C(=O)N1CCN(c2nc3ccc(F)cc3s2)CC1 as the compound, how does the inhibition read?
The inhibition was -11.6%.

For CCc1nn2c(=O)cc(COC(=O)c3ccccc3NC(=O)C3CCCCC3)nc2s1, which inhibition is on record?
The inhibition was -1.6%.

With CCc1ccccc1NC(=O)CCc1c(C)nn(-c2ccc(N3CCOCC3)nn2)c1C as the compound, how does the inhibition read?
Its inhibition is 9.66%.

CCCCNC(=O)C1CCC(CNS(=O)(=O)c2ccc(NC(C)=O)cc2)CC1 (stereo unspecified) was tested. Which inhibition did it give?
The inhibition was -13.6%.

Which inhibition does the source give for COc1ccc(-c2nc3c(c(SCC(=O)N(C)c4ccccc4)n2)Cc2cc(C)ccc2O3)cc1 here?
The inhibition was -18.5%.

How did the inhibition turn out when Cc1ccc2nc(NCc3ccc(F)cc3)c3nncn3c2c1 was run?
Its inhibition is -3.32%.

Cc1nc(-c2ccc(S(=O)(=O)NCc3ccc(N(C)C)cc3)cc2)co1 was tested. Which inhibition did it give?
The inhibition was 8.85%.

Which inhibition does the source give for CSc1ccc(CN2CCC(Cc3ccccc3)CC2)cc1 here?
The inhibition was active: 30.8%.

For Cc1cccc(-n2ncc3c(N4CCN(c5ccccc5)CC4)ncnc32)c1, which inhibition is on record?
Its inhibition is -1.06%.

CCN(CC)c1ccc(NC(=O)Cn2nc(C)n3cccc3c2=O)c(C)c1 was tested. Which inhibition did it give?
Its inhibition is -8.54%.

With COc1cc(CCC(=O)NCc2ccc3c(c2)CCN3C(=O)c2ccc(F)cc2)cc(OC)c1OC as the compound, how does the inhibition read?
Its inhibition is -2.17%.

For Clc1ccc(-c2nnc(SCc3nc(-c4ccccc4)no3)o2)cc1, which inhibition is on record?
The inhibition was active: 40.6%.

Cc1cccc(N2CCN(Cc3c(C)n(C)n(-c4ccccc4)c3=O)CC2)c1C was tested. Which inhibition did it give?
Its inhibition is active: 41.2%.

Which inhibition does the source give for COc1cccc(NC(=O)CCN2CCN(c3ccccc3F)CC2)c1 here?
Its inhibition is active: 76.6%.

Cc1ccc2nc(-c3cccnc3)c(Nc3ccccc3C)n2c1 was tested. Which inhibition did it give?
The inhibition was -0.671%.

How did the inhibition turn out when CCOc1ccc(S(=O)(=O)Nc2nc3ccccc3nc2Nc2ccc(OC)cc2)cc1 was run?
Its inhibition is -2.91%.

Which inhibition does the source give for CCc1ccc(NC(=O)Cn2c(=O)n(Cc3ccco3)c(=O)c3cccnc32)cc1 here?
The inhibition was -8.22%.

How did the inhibition turn out when CCCNC(=O)CCSc1nc(-c2ccc3c(c2)OCO3)cc(C(F)(F)F)n1 was run?
The inhibition was 3.02%.

How did the inhibition turn out when COc1ccccc1CCNC(=O)C(=O)NCC1OCCN1S(=O)(=O)c1ccc(Cl)cc1 (stereo unspecified) was run?
Its inhibition is active: 36.3%.

With CCN(CC(=O)NCc1ccc(F)cc1)C(=O)/C=C/c1ccc(OC)c(S(=O)(=O)NC(C)C)c1 as the compound, how does the inhibition read?
The inhibition was active: 33.5%.

With CC(C)c1ccc(OCC(=O)N(Cc2ccc(N(C)C)cc2)C2CCS(=O)(=O)C2)cc1 (stereo unspecified) as the compound, how does the inhibition read?
The inhibition was -2.26%.

How did the inhibition turn out when C=Cc1ccc(CSc2nc(-c3ccc(C)cc3)nc3c2Cc2c(CO)cnc(C)c2O3)cc1 was run?
The inhibition was -10.1%.

How did the inhibition turn out when O=C(Nc1cccc(C(=O)OCc2cc(=O)n3c4c(sc3n2)CCCC4)c1)c1ccccc1 was run?
The inhibition was -7.73%.
